{"source": "PubChem BioAssay AID1466", "about": "(National Center for Advancing Translational Sciences (NCATS), 2008)", "note": "The whole screen tested about 200,000 compounds, of which about 10 (0.005%) were called active. Inconclusive means that the source gave no clear call. Such entries were picked first, then a sample of the others. The call rests on the fitted dose curve; in most records, active means well fitted inhibition curve with a large enough effect; inconclusive means small, poorly fitted or top-dose-only effect, or effect the other way, or another doubt; inactive means no such curve, though single readings can be large or run the other way. No potency is given beside an inconclusive call; the fits are too rough. Potency means the concentration at half of the fitted maximal effect; tags describe the fitted curve by direction and shape."}
{"target": "Lysosomal alpha-glucosidase (Homo sapiens) (UniProt P10253)", "test": "qHTS Assay for Inhibitors of Human alpha-Glucosidase as a Potential Chaperone Treatment of Pompe Disease;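 on activity change, negative = inhibition: plate controls were uninhibited enzyme wells for no effect and no-enzyme background for full effect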", "details": "purified human GAA, 4-MU-alpha-glucoside fluorescence; activity change, negative = inhibition: at 76.9 µM (top of the series) unless noted", "summary_of_the_method": "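qHTS format, compound range up to 77 uM. Human lysosomal enzyme at 4 nM, 400 uM 4-MU glucoside substrate, pH 5.0, 20 min room temperature; fluorescence after alkaline stop gives activity normalized to controls.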"}
{"smiles": "CCCc1cc(NCc2ccccn2)n2c(nc3ccccc32)c1C#N", "Potency": "inconclusive [activator, partial curve]"}
{"smiles": "Oc1cccc(CN2CCCCC2)c1", "activity change, negative = inhibition": "inactive: 0.711%"}
{"smiles": "CCn1c(=O)cc(N2CCOCC2)[nH]c1=O", "Potency": "inconclusive [inhibitor, single point]"}
{"smiles": "CCN(Cc1ccccc1)C(=O)c1ccc(CNS(=O)(=O)c2ccc(C)cc2)cc1", "Potency": "inconclusive [inhibitor, partial curve, poor fit]"}
{"smiles": "COc1ccc2c(c1)-c1nc(NC(=O)c3ccco3)sc1CC2", "Potency": "inconclusive [inhibitor, single point]"}
{"smiles": "COc1ccc(OCC(=O)NNC(=O)c2cccnc2)cc1", "activity change, negative = inhibition": "inconclusive: 11.8% [activator]"}
{"smiles": "COc1ccc(-c2cn3cccnc3n2)cc1F", "Potency": "inconclusive [activator, partial curve]"}
{"smiles": "O=C(NCc1cccs1)C1CCC(CNS(=O)(=O)c2cccc3nsnc23)CC1", "note": "(stereo not given)", "Potency": "inconclusive [inhibitor, partial curve, poor fit]"}
{"smiles": "O=C(NNC1=NC2(CCCC2)Cc2ccccc21)c1cccnc1", "activity change, negative = inhibition": "inconclusive: 17.1% [activator]"}
{"smiles": "Fc1ccccc1NC(=S)Nc1cccnc1", "activity change, negative = inhibition": "inconclusive: 18.5% [activator]"}
{"smiles": "COCCOC(=O)c1c(NC(=O)CN2CCOCC2)sc(C(N)=O)c1C", "activity change, negative = inhibition": "inconclusive: 17.6% [activator]"}
{"smiles": "CCC(C)NC(=O)CCC(=O)Nc1ccc2nc(N3CCOCC3)cc(C)c2c1", "note": "(stereo not given)", "Potency": "inconclusive [activator, partial curve]"}
{"smiles": "CC1CCN(c2ccc([N+](=O)[O-])cc2C(N)=O)CC1", "activity change, negative = inhibition": "inconclusive: 3.39% [activator]"}
{"smiles": "N#Cc1cc2c(=O)n3ccccc3nc2n(-c2ccc(Cl)cc2)c1=O", "Potency": "inconclusive [activator, partial curve]"}
{"smiles": "COc1ccc(C(C)=O)c2c(O)cccc12", "activity change, negative = inhibition": "inactive: -0.2%"}
{"smiles": "O=C(Nc1ccc2oc(-c3cccc4ccccc34)nc2c1)c1ncn[nH]1", "Potency": "inconclusive [activator, partial curve]"}
{"smiles": "C=CCNC(=S)NNC(=O)COc1cccc(Cl)c1", "Potency": "inconclusive [inhibitor, single point]"}
{"smiles": "CC1CCCC(n2c(=S)[nH]c3ccccc3c2=O)C1C", "note": "(stereo not given)", "Potency": "inconclusive [inhibitor, full curve, poor fit]"}
{"smiles": "O=C(NC1CCN(C(=O)N2c3ccccc3Sc3ccccc32)CC1)c1ccccc1F", "activity change, negative = inhibition": "inconclusive: -16.9% [inhibitor]"}
{"smiles": "COC(=O)c1ccc(-c2cc(C(=O)O)c3cc4c(cc3n2)OCCO4)cc1", "activity change, negative = inhibition": "inconclusive: 191% [activator]"}
